The record followed here is article PMC4336329 (PLoS ONE, 2015).

Among all 310,000 compounds or so, about 2,200 (0.71%) showed an effect of 50% or more. Effects have a minus sign here. Some of the results follow.

This test deals with human ether-à-go-go-related gene (hERG) potassium channel (human, UniProt Q12809). The experiment in a line: primary screen, population patch clamp on CHO cells stably expressing hERG.
Chain of human ether-à-go-go-related gene (hERG) potassium channel (Q12809 whole entry, looked up): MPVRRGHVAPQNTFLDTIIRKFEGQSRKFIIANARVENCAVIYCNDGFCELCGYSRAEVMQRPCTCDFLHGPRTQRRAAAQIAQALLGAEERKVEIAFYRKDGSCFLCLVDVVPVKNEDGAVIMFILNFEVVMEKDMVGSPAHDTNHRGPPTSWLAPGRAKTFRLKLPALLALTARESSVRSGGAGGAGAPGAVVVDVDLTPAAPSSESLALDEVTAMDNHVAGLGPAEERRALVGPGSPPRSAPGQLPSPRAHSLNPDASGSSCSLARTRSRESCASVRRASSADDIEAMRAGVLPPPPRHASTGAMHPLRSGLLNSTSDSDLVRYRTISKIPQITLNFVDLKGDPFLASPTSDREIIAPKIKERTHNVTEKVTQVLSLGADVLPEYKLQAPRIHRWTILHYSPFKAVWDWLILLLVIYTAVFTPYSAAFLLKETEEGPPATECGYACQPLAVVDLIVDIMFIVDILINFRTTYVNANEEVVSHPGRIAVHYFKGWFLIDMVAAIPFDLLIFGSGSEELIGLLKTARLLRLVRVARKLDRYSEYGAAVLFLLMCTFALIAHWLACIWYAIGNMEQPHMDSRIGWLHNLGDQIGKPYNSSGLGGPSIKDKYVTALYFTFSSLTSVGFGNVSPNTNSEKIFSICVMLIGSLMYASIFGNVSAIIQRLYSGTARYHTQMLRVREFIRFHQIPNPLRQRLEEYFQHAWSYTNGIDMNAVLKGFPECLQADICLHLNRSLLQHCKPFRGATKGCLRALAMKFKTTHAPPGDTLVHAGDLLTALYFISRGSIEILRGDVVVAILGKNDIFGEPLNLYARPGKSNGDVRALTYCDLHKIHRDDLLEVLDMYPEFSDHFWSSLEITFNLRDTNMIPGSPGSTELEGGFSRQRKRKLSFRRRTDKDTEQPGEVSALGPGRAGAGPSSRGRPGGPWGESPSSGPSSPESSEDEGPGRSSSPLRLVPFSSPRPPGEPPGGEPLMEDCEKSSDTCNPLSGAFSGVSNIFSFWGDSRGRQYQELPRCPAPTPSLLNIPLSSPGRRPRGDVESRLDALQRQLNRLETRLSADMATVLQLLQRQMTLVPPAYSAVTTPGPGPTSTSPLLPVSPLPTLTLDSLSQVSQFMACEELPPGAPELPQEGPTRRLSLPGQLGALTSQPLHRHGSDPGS
In the case of `Cc1ccc(-c2nnc(-c3cccnc3)o2)cc1`, the “hERG current change (%, negative = inhibition) at 1uM” value is recorded as 2.23%.

For the compound `O=C(Cn1c(=S)nc2ccccn21)N1CCc2ccccc2C1`, the “hERG current change (%, negative = inhibition) at 1uM” value stood at 0.947%.

Take `Cc1ccc(OCc2ccc(C(=O)NN)o2)c([N+](=O)[O-])c1`: the “hERG current change (%, negative = inhibition) at 1uM” value is given as 6.54%.

As to `N#Cc1nc(-c2ccco2)oc1NCc1ccco1`, the “hERG current change (%, negative = inhibition) at 1uM” value worked out at 11.3%. Then `COC(OC)C12c3ccccc3C(c3ccccc31)C1C(=O)N(c3cccnc3)C(=O)C12` (stereo not drawn), with 13%; and `COc1ccc(CN2C(=O)c3cccnc3C2=O)cc1S(=O)(=O)N1CCOc2ccc(C)cc21`, with -2.24%; and `CC1CCN(CCCNC(=O)CN2C(=O)CSc3ccc(S(=O)(=O)N4CCOCC4)cc32)CC1`, with 10.4%.

Turning to `Cc1ccc(S(=O)(=O)N2CCCC(C)C2)cc1` (stereo not drawn), the “hERG current change (%, negative = inhibition) at 1uM” value was 10.6%.

For the compound `c1ccc(CCNc2nnnn2-c2ccccc2)cc1`, the “hERG current change (%, negative = inhibition) at 1uM” value came to 15.3%. Then `CCc1ccc(CNC(=O)c2ccc(NC(=O)C3=CSCCO3)cc2)cc1`, with 4.01%; and `CC1=NN(c2nc(-c3ccc(F)cc3)cs2)C(=O)C1`, with 1.67%; and `Cc1ccc(-c2nc(CN3CCCC(C(=O)N4CCOCC4)C3)c(C)o2)cc1` (stereo not drawn), with -9.44%. For `COC(=O)c1ccc(S(=O)(=O)N2CCCN(Cc3cccc(Br)c3F)CC2)n1C`, the “hERG current change (%, negative = inhibition) at 1uM” value is 4.22%. For `Cc1cccc(C(=O)N2CC3(C)CC2CC(C)(C)C3)c1` (stereo not drawn) the value was 8.1%; for `CCOc1ccc(OCCSc2nc3ccccc3n2CC(=O)O)cc1`, 9.14%; for `Cc1ccc(C(=O)OCC(=O)NC(=O)c2cccn2C)cc1`, 6.46%. Then `O=C(COC(=O)c1cc(S(=O)(=O)N2CCOCC2)ccc1F)c1ccc[nH]1`, with 1.11%; and `Cc1ccc(NC(=O)COc2ccccc2[N+](=O)[O-])nc1`, with 12.4%; and `CC(C)[C@@H]1CC[C@@H](C)C[C@H]1OC(=O)C[n+]1cc(-c2ccc(Cl)cc2)n2c1CCCCC2.[Cl-]`, with 3.7%. For `Cc1ccc(N(CC(=O)NC2CCCCC2)S(=O)(=O)c2c(C)noc2C)cc1` the value was 9.08%. `COc1ccc(NC(=O)Nc2cccc(C(F)(F)F)c2)cn1`: the “hERG current change (%, negative = inhibition) at 1uM” value turned out to be 1.17%. As to `CCCS(=O)(=O)N1CCCC(C(=O)NCc2ccco2)C1` (stereo not drawn), the “hERG current change (%, negative = inhibition) at 1uM” value was determined as 12.6%.

For the compound `O=C(Nc1ccc(OCc2ccccc2)cc1)c1ccccc1`, the “hERG current change (%, negative = inhibition) at 1uM” value is 12.5%. Turning to `CCCCC1(C)OC(=O)C(=Cc2ccc(-c3ccc(Cl)c(C(=O)O)c3)o2)C(=O)O1` (stereo not drawn), the “hERG current change (%, negative = inhibition) at 1uM” value worked out at 2%. On to `CNS(=O)(=O)c1cc(C(=O)OCC(=O)NC2CCCc3ccccc32)ccc1Cl` (stereo not drawn), for which the “hERG current change (%, negative = inhibition) at 1uM” value was found to be 4.51%. Then `Cc1ccc(-c2nnn(CC(=O)N3CCN(c4ccccc4)CC3)n2)o1`, with 8.24%. Then `NS(=O)(=O)c1ccc(NC(=O)CN2CCN(S(=O)(=O)c3ccc(F)cc3)CC2)cc1`, with 7.08%; and `Cc1ccc(S(=O)(=O)NC(=O)Nc2ccc(C)cn2)cc1`, with 26.2%; and `OCC(O)[C@@H](O[C@H]1O[C@H](CO)[C@@H](O)[C@H](O)[C@H]1O)[C@H](O)[C@@H](O)CO` (stereo partly drawn), with 14.4%. Then `COc1ccc(/C=C2\SC(=O)N(CC(=O)NN3CCN(C)CC3)C2=O)cc1OC`, with 21.1%; and `Cc1nc2ccc(NC(=O)Cc3ccccc3F)cc2s1`, with 2.55%; and `COc1ccc(NS(=O)(=O)NC(=O)c2c(C)n(C)c3ccccc23)cc1`, with 15.9%. Regarding `COc1ccccc1NC(=O)COC(=O)COc1cccc2c1OC(C)(C)C2`, the “hERG current change (%, negative = inhibition) at 1uM” value was -2.64%. With `C/C(=N\Nc1ccccn1)c1ccc(C(C)C)cc1`, the “hERG current change (%, negative = inhibition) at 1uM” value was 11.6%. For `Cc1cc(C)c2c(c1)/C(=c1/sc3n(c1=O)CN(c1ccccc1)CN=3)C(=O)N2` the value was 10.5%; for `CC(Sc1nnc(COc2ccc(Cl)cc2)n1Cc1ccco1)C(=O)N1CCNC1=O` (stereo not drawn), -5.57%; for `CC(C)(Cl)C1Cc2cc3ccc(=O)oc3cc2O1` (stereo not drawn), 8.67%. In the case of `Cc1c(NC(=O)Nc2ccc(F)cc2F)c(=O)n(-c2ccccc2)n1C`, the “hERG current change (%, negative = inhibition) at 1uM” value is -12.8%.

Take `COc1ccc(S(=O)(=O)N2CC(C)N(C(=O)N3CCOCC3)C2)cc1` (stereo not drawn): the “hERG current change (%, negative = inhibition) at 1uM” value came out at 17.1%. Turning to `O=C1c2nc3cc(-c4ccccc4)[nH]n3c(=O)c2CN1Cc1ccccc1`, the “hERG current change (%, negative = inhibition) at 1uM” value is given as 15.4%. Then `CN(C)c1ccc(CN(C(=O)c2ccc(Cl)c([N+](=O)[O-])c2)C2CCS(=O)(=O)C2)cc1` (stereo not drawn), with 8.22%; and `CCCCn1c(N)c(N(CCOC)C(=O)c2cc3c(s2)CCC(C)C3)c(=O)[nH]c1=O` (stereo not drawn), with 12.9%.

On to `O=C(Nc1ncc2c(n1)-c1ccccc1CC2)C1CC1`, for which the “hERG current change (%, negative = inhibition) at 1uM” value was 9.2%. For `O=S(=O)(Nc1ccc(-c2ccc(N3CCOCC3)nn2)cc1)c1ccc(Cl)c(Cl)c1` the value was 12.4%. Then `Cc1ccc(NC(=O)COC(=O)CC2SC(N3CCCC3)=NC2=O)cc1` (stereo not drawn), with 11%; and `CCCCc1cc(=O)oc2c(C)c(OCC(=O)NCc3ccccn3)ccc12`, with -18.6%; and `Nc1cc2c(cc1Cl)N(Cc1ccccc1)C(=O)CO2`, with 14.9%. For the compound `CC1(c2ccc3ccccc3c2)NC(=O)N(CC(=O)Nc2cccc(S(=O)(=O)N3CCOCC3)c2)C1=O` (stereo not drawn), the “hERG current change (%, negative = inhibition) at 1uM” value is reported as 14.4%. As for `COCCn1ccc2c(OCC(=O)Nc3cc(OC)ccc3OC)cccc2c1=O`, the “hERG current change (%, negative = inhibition) at 1uM” value stood at 1.32%. `O=C(N[C@H]1CP(=O)(Oc2ccccc2)O[C@H](COCc2ccccc2)[C@H]1O)C(Cl)(Cl)Cl` (stereo partly drawn): the “hERG current change (%, negative = inhibition) at 1uM” value worked out at 16.3%. For `O=C(Nc1cccc(C(F)(F)F)c1)c1c(O)c2ccccc2[nH]c1=O` the value was 11.4%.

As for `C=CCNC(=S)N/N=C/c1cn(C)c2ccccc12`, the “hERG current change (%, negative = inhibition) at 1uM” value came out at 14.9%.

As for `CCCC(=O)NCC(c1cccs1)S(=O)(=O)c1ccc(Cl)cc1` (stereo not drawn), the “hERG current change (%, negative = inhibition) at 1uM” value turned out to be 7.07%. Then `Cc1ccc(N2C(=O)CSCC2=O)cc1`, with -5.17%; and `Nc1ccc(C(=O)OCC(=O)NC2CC2)cc1[N+](=O)[O-]`, with 10.4%; and `CCOC(=O)C1CCN(C(=O)CSc2c3c(nc4ccccc24)CCC3)CC1`, with 5.16%. For the compound `CCc1nnc(NC(=O)c2cccc(S(=O)(=O)N(C)c3ccccc3)c2)s1`, the “hERG current change (%, negative = inhibition) at 1uM” value is 18.8%. On to `Cn1c(CO)cnc1S(=O)(=O)Cc1c(Cl)cccc1Cl`, for which the “hERG current change (%, negative = inhibition) at 1uM” value worked out at 5.51%. For `O=C(Nc1ccc(Cl)cc1)N(Cc1cccs1)Cc1cccs1`, the “hERG current change (%, negative = inhibition) at 1uM” value is listed as -2.54%. As for `CN(C)C(=O)c1ccc(NC(=O)c2cccc(S(=O)(=O)N3CCCc4ccccc43)c2)cc1`, the “hERG current change (%, negative = inhibition) at 1uM” value amounted to 6.04%. For `Cc1cc(NC(=O)c2ccc(COc3ccc(Cl)c(C)c3)o2)no1` the value was 8.14%. `CCc1ccc(CNC(=O)c2ccc3nc(C4CCCCC4)oc3c2)nc1`: the “hERG current change (%, negative = inhibition) at 1uM” value was 11.3%. On to `COc1ccc(C(=O)Oc2cc(N)n(S(=O)(=O)c3ccccc3)n2)cc1`, for which the “hERG current change (%, negative = inhibition) at 1uM” value was determined as 1.48%.

On to `COc1ccc(C)cc1S(=O)(=O)Nc1ccc2c(c1)OCO2`, for which the “hERG current change (%, negative = inhibition) at 1uM” value is listed as 8.95%.

In the case of `COc1cc(C#Cc2c(C=O)n(C)c3ccccc23)cc(OC)c1`, the “hERG current change (%, negative = inhibition) at 1uM” value is given as 16.2%. Consider `Cc1cc(C)n(CC(=O)N/N=C/c2cccs2)n1`, for which the “hERG current change (%, negative = inhibition) at 1uM” value is 1.86%. For `Cc1c(Cl)cccc1NC(=O)Cn1cnc(S(=O)(=O)N2CCCC2)c1` the value was 16.5%; for `Cc1cc(C)c(NC(=O)C2=COCCO2)c(C)c1`, 6.63%. Then `CCOc1ccc(/C=N/NC(=O)c2cc3c(OC)cc(OC)cc3[nH]2)cc1OC`, with 14.3%. For `CCOc1ccc(S(=O)(=O)N2CCOCC2)cc1NC(=O)CN1C(=O)NC(C)(c2ccccc2)C1=O` (stereo not drawn), the “hERG current change (%, negative = inhibition) at 1uM” value is on record as 4.38%.

Regarding `CN1CCN(C(=O)C2=C[C@@H](c3ccccc3)C[C@@H](OCCCCO)O2)CC1`, the “hERG current change (%, negative = inhibition) at 1uM” value is given as 7.49%. Then `CC1CCCC(NC(=O)C2CCN(S(=O)(=O)N3CCOCC3)CC2)C1C` (stereo not drawn), with 1.56%; and `CC(C)OC(=O)CSc1nc(N2CCOCC2)c2c(c1C#N)CC(C)(C)OC2`, with 1.24%; and `Cl.OC(CN1CCCCC1)Cn1c(C(F)(F)F)nc2ccccc21` (stereo not drawn), with 11.6%. For the compound `O=C(CC(Nc1ccc(Cl)cc1Cl)C(=O)O)c1ccccc1` (stereo not drawn), the “hERG current change (%, negative = inhibition) at 1uM” value stood at 16.7%. Then `CCCCC1=CC2=C(c3ccco3)C(=O)C(C)(OC(=O)c3ccc(OC)cc3)C(=O)C2=CN1CCCOC(C)C` (stereo not drawn), with 10.9%; and `COc1ccc(S(=O)(=O)N2CCC(C(=O)NC(C)CCc3ccccc3)CC2)cc1` (stereo not drawn), with 11.1%. As for `Cc1ccc(N2CC(C(=O)Nc3ccccc3C(=O)NC3CCCCC3)CC2=O)cc1C` (stereo not drawn), the “hERG current change (%, negative = inhibition) at 1uM” value worked out at 8.23%. Then `CCN(CC)S(=O)(=O)c1cc(NC(=O)CSc2nnc(N)s2)ccc1C`, with 10.9%; and `Cc1cc(C)cc(NS(=O)(=O)c2c(C(=O)N3CCCCCC3)c(C)n(C)c2C)c1`, with 10.4%. Then `COc1ccc(CN2CCN(CCCc3ccccc3)C(CCO)C2)c(OC)c1` (stereo not drawn), with -39.7%; and `COc1ccc(C(=O)NCc2ccccc2OC)c(OC)c1`, with 0.756%.

For the compound `COc1cc(OC)c(C2SCCCS2)cc1OC`, the “hERG current change (%, negative = inhibition) at 1uM” value was found to be 11.1%. Then `O=C(CCCOc1ccc(Cl)cc1Cl)NCc1ccccn1`, with 6.21%; and `Cn1c(CCN2CCCCC2)nc2cc(NC(=O)C3CCCCC3)ccc21`, with -25.9%; and `CN(CC(=O)NCC1CCCO1)S(=O)(=O)c1ccc(Br)cc1` (stereo not drawn), with 4.17%.

`Cc1ccc(SCC(=O)OCC(=O)N(C)CC(=O)Nc2ccc(F)cc2)cc1`: the “hERG current change (%, negative = inhibition) at 1uM” value turned out to be 1.19%.
